# Laboratory results taken from the supplement of paper PMC8728848.
# Some of the results follow.
# Assays:
# Assay in all cases: glycan array binding signal (z-score within array); higher = stronger binding
# Settings in all cases: glycan notation: IUPAC condensed, linker removed
# [1] = molecular target: Fuc(a1-2)Gal(b1-4)[Fuc(a1-3)]GlcNAc(b1-3)GalNAc
# Outline: (§1)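 The Consortium for Functional Glycomics database supplied 3228 glycan arrays, of which those lacking an available protein sequence were dropped. The binding signal, a within-array Z-score, was averaged across arrays of the same protein sequence and across linkers. Negative scores can be read as non-binding.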
# [2] = molecular target: Fuc(a1-2)Gal(b1-4)[Fuc(a1-3)]GlcNAc(b1-3)[Neu5Ac(a2-6)Gal(b1-4)GlcNAc(b1-6)]Gal(b1-4)Glc
# Outline: as §1
# [3] = molecular target: Fuc(a1-2)Gal3S(b1-4)GlcNAc
# Outline: as §1
# [4] = molecular target: Fuc(a1-2)Gal6S(b1-3)GlcNAc
# Outline: as §1
# [5] = molecular target: Fuc(a1-2)Gal6S(b1-3)GlcNAc6S
# Outline: as §1
# Fuc(a1-2)Gal6S(b1-4)Glc = molecular target: Fuc(a1-2)Gal6S(b1-4)Glc
# Outline: as §1
# [6] = molecular target: Fuc(a1-2)Gal6S(b1-4)Glc6S
# Outline: as §1
# [7] = molecular target: Fuc(a1-2)Gal6S(b1-4)GlcNAc
# Outline: as §1
# Fuc(a1-2)GlcNAc = molecular target: Fuc(a1-2)GlcNAc
# Outline: as §1
# Fuc(a1-2)[Gal(a1-3)]Gal = molecular target: Fuc(a1-2)[Gal(a1-3)]Gal
# Outline: as §1
# [8] = molecular target: Fuc(a1-2)[Gal(a1-3)]Gal(b1-3)GalNAc
# Outline: as §1
# [9] = molecular target: Fuc(a1-2)[Gal(a1-3)]Gal(b1-3)GalNAc(b1-3)Gal(a1-4)Gal(b1-4)Glc
# Outline: as §1
# [10] = molecular target: Fuc(a1-2)[Gal(a1-3)]Gal(b1-3)GlcNAc
# Outline: as §1
# [11] = molecular target: Fuc(a1-2)[Gal(a1-3)]Gal(b1-3)GlcNAc(b1-2)Man(a1-3)[Fuc(a1-2)[Gal(a1-3)]Gal(b1-3)GlcNAc(b1-2)Man(a1-6)]Man(b1-4)GlcNAc(b1-4)GlcNAc
# Outline: as §1
# [12] = molecular target: Fuc(a1-2)[Gal(a1-3)]Gal(b1-3)GlcNAc(b1-2)Man(a1-3)[Fuc(a1-2)[Gal(a1-3)]Gal(b1-3)GlcNAc(b1-2)Man(a1-6)]Man(b1-4)GlcNAc(b1-4)[Fuc(a1-6)]GlcNAc
# Outline: as §1
# [13] = molecular target: Fuc(a1-2)[Gal(a1-3)]Gal(b1-3)GlcNAc(b1-3)GalNAc
# Outline: as §1
# [14] = molecular target: Fuc(a1-2)[Gal(a1-3)]Gal(b1-3)GlcNAc(b1-6)GalNAc
# Outline: as §1
# [15] = molecular target: Fuc(a1-2)[Gal(a1-3)]Gal(b1-4)Glc
# Outline: as §1
# [16] = molecular target: Fuc(a1-2)[Gal(a1-3)]Gal(b1-4)GlcNAc
# Outline: as §1
# [17] = molecular target: Fuc(a1-2)[Gal(a1-3)]Gal(b1-4)GlcNAc(b1-2)Man
# Outline: as §1
# [18] = molecular target: Fuc(a1-2)[Gal(a1-3)]Gal(b1-4)GlcNAc(b1-2)Man(a1-3)[Fuc(a1-2)[Gal(a1-3)]Gal(b1-4)GlcNAc(b1-2)Man(a1-6)]Man(b1-4)GlcNAc(b1-4)GlcNAc
# Outline: as §1
# [19] = molecular target: Fuc(a1-2)[Gal(a1-3)]Gal(b1-4)GlcNAc(b1-2)Man(a1-3)[Fuc(a1-2)[Gal(a1-3)]Gal(b1-4)GlcNAc(b1-2)Man(a1-6)]Man(b1-4)GlcNAc(b1-4)[Fuc(a1-6)]GlcNAc
# Outline: as §1
# [20] = molecular target: Fuc(a1-2)[Gal(a1-3)]Gal(b1-4)GlcNAc(b1-3)GalNAc
# Outline: as §1
# [21] = molecular target: Fuc(a1-2)[Gal(a1-3)]Gal(b1-4)GlcNAc(b1-3)[Fuc(a1-2)[Gal(a1-3)]Gal(b1-4)GlcNAc(b1-6)]GalNAc
# Outline: as §1
# [22] = molecular target: Fuc(a1-2)[Gal(a1-3)]Gal(b1-4)GlcNAc(b1-6)GalNAc
# Outline: as §1
# [23] = molecular target: Fuc(a1-2)[Gal(a1-3)]Gal(b1-4)[Fuc(a1-3)]Glc
# Outline: as §1
# [24] = molecular target: Fuc(a1-2)[Gal(a1-3)]Gal(b1-4)[Fuc(a1-3)]GlcNAc
# Outline: as §1
# [25] = molecular target: Fuc(a1-2)[Gal(a1-3)]Gal(b1-4)[Fuc(a1-3)]GlcNAc(b1-3)GalNAc
# Outline: as §1
# [26] = molecular target: Fuc(a1-2)[Gal(a1-4)]Gal(b1-4)GlcNAc
# Outline: as §1
# [27] = molecular target: Fuc(a1-2)[GalNAc(a1-3)]Gal
# Outline: as §1
# [28] = molecular target: Fuc(a1-2)[GalNAc(a1-3)]Gal(b1-3)GalNAc(a1-3)[Fuc(a1-2)]Gal(b1-4)GlcNAc
# Outline: as §1
# [29] = molecular target: Fuc(a1-2)[GalNAc(a1-3)]Gal(b1-3)GalNAc(b1-3)Gal(a1-4)Gal(b1-4)Glc
# Outline: as §1
# [30] = molecular target: Fuc(a1-2)[GalNAc(a1-3)]Gal(b1-3)GlcNAc
# Outline: as §1
# [31] = molecular target: Fuc(a1-2)[GalNAc(a1-3)]Gal(b1-3)GlcNAc(b1-2)Man(a1-3)[Fuc(a1-2)[GalNAc(a1-3)]Gal(b1-3)GlcNAc(b1-2)Man(a1-6)]Man(b1-4)GlcNAc(b1-4)GlcNAc
# Outline: as §1
# [32] = molecular target: Fuc(a1-2)[GalNAc(a1-3)]Gal(b1-3)GlcNAc(b1-2)Man(a1-3)[Fuc(a1-2)[GalNAc(a1-3)]Gal(b1-3)GlcNAc(b1-2)Man(a1-6)]Man(b1-4)GlcNAc(b1-4)[Fuc(a1-6)]GlcNAc
# Outline: as §1
# [33] = molecular target: Fuc(a1-2)[GalNAc(a1-3)]Gal(b1-3)GlcNAc(b1-3)GalNAc
# Outline: as §1
# [34] = molecular target: Fuc(a1-2)[GalNAc(a1-3)]Gal(b1-3)GlcNAc(b1-6)GalNAc
# Outline: as §1
# [35] = molecular target: Fuc(a1-2)[GalNAc(a1-3)]Gal(b1-4)Glc
# Outline: as §1
# [36] = molecular target: Fuc(a1-2)[GalNAc(a1-3)]Gal(b1-4)GlcNAc
# Outline: as §1
# [37] = molecular target: Fuc(a1-2)[GalNAc(a1-3)]Gal(b1-4)GlcNAc(b1-2)Man
# Outline: as §1
# [38] = molecular target: Fuc(a1-2)[GalNAc(a1-3)]Gal(b1-4)GlcNAc(b1-2)Man(a1-3)[Fuc(a1-2)[GalNAc(a1-3)]Gal(b1-4)GlcNAc(b1-2)Man(a1-6)]Man(b1-4)GlcNAc(b1-4)GlcNAc
# Outline: as §1
# [39] = molecular target: Fuc(a1-2)[GalNAc(a1-3)]Gal(b1-4)GlcNAc(b1-2)Man(a1-3)[Fuc(a1-2)[GalNAc(a1-3)]Gal(b1-4)GlcNAc(b1-2)Man(a1-6)]Man(b1-4)GlcNAc(b1-4)[Fuc(a1-6)]GlcNAc
# Outline: as §1
# [40] = molecular target: Fuc(a1-2)[GalNAc(a1-3)]Gal(b1-4)GlcNAc(b1-2)Man(a1-3)[GalNAc(a1-3)[Fuc(a1-2)]Gal(b1-4)GlcNAc(b1-2)Man(a1-6)]Man(b1-4)GlcNAc(b1-4)GlcNAc
# Outline: as §1
# [41] = molecular target: Fuc(a1-2)[GalNAc(a1-3)]Gal(b1-4)GlcNAc(b1-3)Gal(b1-4)GlcNAc
# Outline: as §1
# [42] = molecular target: Fuc(a1-2)[GalNAc(a1-3)]Gal(b1-4)GlcNAc(b1-3)Gal(b1-4)GlcNAc(b1-3)Gal(b1-4)GlcNAc
# Outline: as §1
binder,measurement,setting,value
"GNA (Galanthus nivalis), P30617 (protein) MAKASLLILAAIFLGVITPSCLSDNILYSGETLSTGEFLNYGSFVFIMQEDCNLVLYDVDKPIWATNTGGLSRSCFLSMQTDGNLVVYNPSNKPIWASNTGGQNGNYVCILQKDRNVVIYGTDRWATGTHTGLVGIPASPPSEKYPTAGKIKLVTAK",glycan array binding signal (z-score),[1],-0.131
same,glycan array binding signal (z-score),[2],-0.174
same,glycan array binding signal (z-score),[3],-0.165
same,glycan array binding signal (z-score),[4],-0.179
same,glycan array binding signal (z-score),[5],-0.137
same,glycan array binding signal (z-score),Fuc(a1-2)Gal6S(b1-4)Glc,-0.015
same,glycan array binding signal (z-score),[6],-0.007
same,glycan array binding signal (z-score),[7],0.454
same,glycan array binding signal (z-score),Fuc(a1-2)GlcNAc,-0.201
same,glycan array binding signal (z-score),Fuc(a1-2)[Gal(a1-3)]Gal,-0.188
same,glycan array binding signal (z-score),[8],-0.151
same,glycan array binding signal (z-score),[9],-0.161
same,glycan array binding signal (z-score),[10],-0.175
same,glycan array binding signal (z-score),[11],-0.019
same,glycan array binding signal (z-score),[12],0.539
same,glycan array binding signal (z-score),[13],-0.163
same,glycan array binding signal (z-score),[14],-0.169
same,glycan array binding signal (z-score),[15],-0.161
same,glycan array binding signal (z-score),[16],-0.241
same,glycan array binding signal (z-score),[17],-0.148
same,glycan array binding signal (z-score),[18],-0.178
same,glycan array binding signal (z-score),[19],0.168
same,glycan array binding signal (z-score),[20],-0.153
same,glycan array binding signal (z-score),[21],-0.171
same,glycan array binding signal (z-score),[22],-0.167
same,glycan array binding signal (z-score),[23],-0.16
same,glycan array binding signal (z-score),[24],-0.165
same,glycan array binding signal (z-score),[25],-0.127
same,glycan array binding signal (z-score),[26],-0.231
same,glycan array binding signal (z-score),[27],-0.231
same,glycan array binding signal (z-score),[28],-0.159
same,glycan array binding signal (z-score),[29],-0.174
same,glycan array binding signal (z-score),[30],-0.207
same,glycan array binding signal (z-score),[31],-0.127
same,glycan array binding signal (z-score),[32],0.259
same,glycan array binding signal (z-score),[33],-0.168
same,glycan array binding signal (z-score),[34],-0.18
same,glycan array binding signal (z-score),[35],-0.22
same,glycan array binding signal (z-score),[36],-0.246
same,glycan array binding signal (z-score),[37],-0.17
same,glycan array binding signal (z-score),[38],-0.12
same,glycan array binding signal (z-score),[39],0.348
same,glycan array binding signal (z-score),[40],-0.118
same,glycan array binding signal (z-score),[41],-0.22
same,glycan array binding signal (z-score),[42],-0.127
